Test results as given in the supplement of paper PMC4967469.

How the values were obtained:
Assay in all cases: Viability of human cancer cell lines after 72 h of drug (GDSC screen)
JQ1 = compound: Cc1sc2c(c1C)C(c1ccc(Cl)cc1)=N[C@@H](CC(=O)OC(C)(C)C)c1nnc(C)n1-2 [JQ1]
Method: (§1)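 Human cancer cell lines in 384-well plates, medium with 10% serum, drug for 72 h over a 256-fold dose range (nine 2-fold or five 4-fold steps up to the top dose). Adherent lines were fixed and stained with the nucleic acid dye Syto60, suspension lines read with resazurin; signal relative to control wells, capped at 0 and 100%. One two-parameter sigmoid per drug and line, fitted in a mixed model over all curves with the slope shared within a line.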

SB-715992 = compound: Cc1ccc(C(=O)N(CCCN)[C@@H](c2nc3cc(Cl)ccc3c(=O)n2Cc2ccccc2)C(C)C)cc1 [SB-715992]; details: top dose 0.128 µM; top dose inferred
Method: as §1

FTI-277 = compound: COC(=O)[C@H](CCSC)NC(=O)c1ccc(NC[C@@H](N)CS)cc1-c1ccccc1 [FTI-277]; details: top dose 1.024 µM; top dose inferred
Method: as §1

NSC-207895 = compound: CN1CCN(c2ccc([N+](=O)[O-])c3no[n+]([O-])c23)CC1 [NSC-207895]; details: top dose 20 µM; top dose inferred
Method: as §1

JNK Inhibitor VIII = compound: CCOc1nc(NC(=O)Cc2cc(OC)ccc2OC)cc(N)c1C#N [JNK Inhibitor VIII]; details: top dose 10 µM; top dose inferred
Method: as §1

AMG-706 = compound: CC1(C)CNc2cc(NC(=O)c3cccnc3NCc3ccncc3)ccc21 [AMG-706]; details: top dose 2 µM; top dose inferred
Method: as §1

JNJ-26854165 = compound: c1ccc2c(CCNc3ccc(Nc4ccncc4)cc3)c[nH]c2c1 [JNJ-26854165]; details: top dose 10 µM
Method: as §1

OSI-906 = compound: C[C@]1(O)C[C@@H](c2nc(-c3ccc4ccc(-c5ccccc5)nc4c3)c3c(N)nccn32)C1 [OSI-906]; details: top dose 2.56 µM; top dose inferred
Method: as §1

YM155 = compound: COCC[n+]1c2c(n(Cc3cnccn3)c1C)C(=O)c1ccccc1C2=O [YM155]; details: top dose 5.12 µM
Method: as §1

Belinostat = compound: O=C(/C=C/c1cccc(S(=O)(=O)Nc2ccccc2)c1)NO [Belinostat]; details: top dose 20 µM; top dose inferred
Method: as §1

[1] = top dose 1 µM, screen: GDSC drug entry 1218, top dose inferred
[2] = top dose 2.56 µM, screen: GDSC drug entry 163

With “NCI-H1944 (lung adenocarcinoma, adherent)” the AUC (JQ1; [1]) was 0.983, the IC50 (JQ1; [1]) was > 1000 nM and the AUC (JQ1; [2]) was 0.647. For the same cell line, the IC50 (JQ1; [2]) was 422 nM, the AUC (SB-715992) was 0.653 and the IC50 (SB-715992) was 21.9 nM. The AUC (FTI-277) was 0.948, the IC50 (FTI-277) was > 1020 nM and the AUC (NSC-207895) was 0.852. The IC50 (NSC-207895) was 17100 nM, the AUC (JNK Inhibitor VIII) was 0.946 and the IC50 (JNK Inhibitor VIII) was > 10000 nM. The AUC (AMG-706) was 0.943, the IC50 (AMG-706) was > 2000 nM and the AUC (JNJ-26854165) was 0.862. The IC50 (JNJ-26854165) was 9510 nM, the AUC (OSI-906) was 0.862 and the IC50 (OSI-906) was 2440 nM. For the same cell line, the AUC (YM155) was 0.084, the IC50 (YM155) was < 20 nM and the AUC (Belinostat) was 0.357. It also gave an IC50 (Belinostat) of 488 nM.

With “NCI-H2023 (lung adenocarcinoma, adherent)” the AUC (JQ1; [1]) was 0.98, the IC50 (JQ1; [1]) was > 1000 nM and the AUC (JQ1; [2]) was 0.75. For the same cell line, the IC50 (JQ1; [2]) was 1020 nM, the AUC (SB-715992) was 0.98 and the IC50 (SB-715992) was > 128 nM. The AUC (FTI-277) was 0.983, the IC50 (FTI-277) was > 1020 nM and the AUC (NSC-207895) was 0.982. The IC50 (NSC-207895) was > 20000 nM, the AUC (JNK Inhibitor VIII) was 0.911 and the IC50 (JNK Inhibitor VIII) was > 10000 nM. The AUC (AMG-706) was 0.966, the IC50 (AMG-706) was > 2000 nM and the AUC (JNJ-26854165) was 0.839. The IC50 (JNJ-26854165) was 9430 nM, the AUC (OSI-906) was 0.941 and the IC50 (OSI-906) was > 2560 nM. The AUC (YM155) was 0.21, the IC50 (YM155) was 34.9 nM and the AUC (Belinostat) was 0.699. The IC50 (Belinostat) was 5250 nM.

“NCI-H2030 (lung adenocarcinoma, adherent)” was tested, and the AUC (JQ1; [1]) was 0.937, the IC50 (JQ1; [1]) was > 1000 nM and the AUC (JQ1; [2]) was 0.73. For the same cell line, the IC50 (JQ1; [2]) was 802 nM, the AUC (SB-715992) was 0.763 and the IC50 (SB-715992) was 52.5 nM. For the same cell line, the AUC (FTI-277) was 0.966, the IC50 (FTI-277) was > 1020 nM and the AUC (NSC-207895) was 0.93. For the same cell line, the IC50 (NSC-207895) was > 20000 nM, the AUC (JNK Inhibitor VIII) was 0.9 and the IC50 (JNK Inhibitor VIII) was > 10000 nM. For the same cell line, the AUC (AMG-706) was 0.946, the IC50 (AMG-706) was > 2000 nM and the AUC (JNJ-26854165) was 0.931. For the same cell line, the IC50 (JNJ-26854165) was > 10000 nM, the AUC (OSI-906) was 0.908 and the IC50 (OSI-906) was > 2560 nM. The AUC (YM155) was 0.061, the IC50 (YM155) was < 20 nM and the AUC (Belinostat) was 0.526. For the same cell line, the IC50 (Belinostat) was 1490 nM.

In the case of “NCI-H2085 (lung adenocarcinoma, adherent)”, the AUC (JQ1; [1]) is reported as 0.928, the IC50 (JQ1; [1]) is reported as > 1000 nM and the AUC (JQ1; [2]) is reported as 0.777. The IC50 (JQ1; [2]) was 1120 nM, the AUC (SB-715992) was 0.855 and the IC50 (SB-715992) was 116 nM. The AUC (FTI-277) was 0.983, the IC50 (FTI-277) was > 1020 nM and the AUC (NSC-207895) was 0.892. For the same cell line, the IC50 (NSC-207895) was > 20000 nM, the AUC (JNK Inhibitor VIII) was 0.983 and the IC50 (JNK Inhibitor VIII) was > 10000 nM. For the same cell line, the AUC (AMG-706) was 0.979, the IC50 (AMG-706) was > 2000 nM and the AUC (JNJ-26854165) was 0.963. For the same cell line, the IC50 (JNJ-26854165) was > 10000 nM, the AUC (OSI-906) was 0.952 and the IC50 (OSI-906) was > 2560 nM. For the same cell line, the AUC (YM155) was 0.066, the IC50 (YM155) was < 20 nM and the AUC (Belinostat) was 0.647. The IC50 (Belinostat) was 3310 nM.

With “NCI-H2087 (lung adenocarcinoma, semi-adherent)” the AUC (JQ1; [1]) was 0.984, the IC50 (JQ1; [1]) was > 1000 nM and the AUC (JQ1; [2]) was 0.641. The IC50 (JQ1; [2]) was 405 nM, the AUC (SB-715992) was 0.707 and the IC50 (SB-715992) was 32.4 nM. For the same cell line, the AUC (FTI-277) was 0.977, the IC50 (FTI-277) was > 1020 nM and the AUC (NSC-207895) was 0.953. The IC50 (NSC-207895) was > 20000 nM, the AUC (JNK Inhibitor VIII) was 0.979 and the IC50 (JNK Inhibitor VIII) was > 10000 nM. For the same cell line, the AUC (AMG-706) was 0.972, the IC50 (AMG-706) was > 2000 nM and the AUC (JNJ-26854165) was 0.818. The IC50 (JNJ-26854165) was 6190 nM, the AUC (OSI-906) was 0.955 and the IC50 (OSI-906) was > 2560 nM. For the same cell line, the AUC (YM155) was 0.031, the IC50 (YM155) was < 20 nM and the AUC (Belinostat) was 0.481. It also gave an IC50 (Belinostat) of 1110 nM.

For NUGC-3 (stomach, adherent), the AUC (JQ1; [1]) was 0.928, the IC50 (JQ1; [1]) was > 1000 nM and the AUC (JQ1; [2]) was 0.874. The IC50 (JQ1; [2]) was > 2560 nM, the AUC (SB-715992) was 0.956 and the IC50 (SB-715992) was > 128 nM. The AUC (FTI-277) was 0.954, the IC50 (FTI-277) was > 1020 nM and the AUC (NSC-207895) was 0.906. For the same cell line, the IC50 (NSC-207895) was > 20000 nM, the AUC (JNK Inhibitor VIII) was 0.962 and the IC50 (JNK Inhibitor VIII) was > 10000 nM. For the same cell line, the AUC (AMG-706) was 0.955, the IC50 (AMG-706) was > 2000 nM and the AUC (JNJ-26854165) was 0.788. For the same cell line, the IC50 (JNJ-26854165) was 4970 nM, the AUC (OSI-906) was 0.984 and the IC50 (OSI-906) was > 2560 nM. For the same cell line, the AUC (YM155) was 0.033, the IC50 (YM155) was < 20 nM and the AUC (Belinostat) was 0.596. It also gave an IC50 (Belinostat) of 2360 nM.

The IC50 comes from the fitted curve, where viability falls to half of the control; where the fit passes the top or lowest dose, that dose stands as a limit. For AUC the same curve is integrated over the 256-fold range of doses and scaled to a fraction; it is 1 without any effect and falls as sensitivity rises. For part of these data: The top dose, if marked as inferred, was derived from the fitted curves, not read from the paper. For part of these data: An entry number marks a drug with two screens in the source, which often give different values.
